Assay results taken from PubChem BioAssay AID1030 (National Center for Advancing Translational Sciences (NCATS), 2008).
In all, about 220,000 compounds went through this assay and about 16,000 (7.3%) were called active. The inconclusive results got no clear call from the source; some entries with a clear call stand among them for comparison. Calls follow the shape of the dose curve; as a rule, active = well fitted inhibition curve with a large enough effect (not every such curve was filed as active); inconclusive = small, poorly fitted or top-dose-only effect, or another doubt; inactive = no such curve, though single readings can be large or run the other way. No potency is given beside an inconclusive call; the fits are too rough.
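For activity, negative = inhibition in this document: plate controls were no enzyme wells and a reference inhibitor.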
Potency is read from the fitted curve at half-maximal effect; tags tell the direction and shape of the fitted curve.

The compounds below were run against Aldehyde dehydrogenase 1A1 (Homo sapiens) (UniProt P00352) (assay: qHTS Assay for Inhibitors of Aldehyde Dehydrogenase 1 (ALDH1A1)). Conditions: Purified ALDH1A1, NADH fluorescence, propionaldehyde substrate; series mostly up to 75.3 µM.
Sequence of UniProt P00352 (P00352 whole entry, looked up): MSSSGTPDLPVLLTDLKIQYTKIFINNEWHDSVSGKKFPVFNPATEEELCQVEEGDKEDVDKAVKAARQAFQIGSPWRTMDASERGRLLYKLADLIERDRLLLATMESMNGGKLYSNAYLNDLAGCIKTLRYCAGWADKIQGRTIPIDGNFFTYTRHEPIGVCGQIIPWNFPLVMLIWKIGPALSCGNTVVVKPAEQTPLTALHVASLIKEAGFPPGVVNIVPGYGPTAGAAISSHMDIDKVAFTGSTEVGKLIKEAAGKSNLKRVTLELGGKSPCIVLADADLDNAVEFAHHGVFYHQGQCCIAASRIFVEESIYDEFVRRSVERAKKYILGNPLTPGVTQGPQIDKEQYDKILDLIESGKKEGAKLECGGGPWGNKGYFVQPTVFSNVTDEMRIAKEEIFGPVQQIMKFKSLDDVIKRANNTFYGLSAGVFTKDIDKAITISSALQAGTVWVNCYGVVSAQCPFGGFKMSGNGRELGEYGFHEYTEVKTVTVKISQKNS
`COc1ccc(NS(=O)(=O)c2ccc(I)cc2)cc1N1CCN(C)CC1` was tested, and the Potency was inconclusive [inhibitor, single point].
`CN(C)C=NC(=O)c1cc(C(=O)c2ccc(Cl)cc2Cl)c[nH]1` was tested, and the Potency was “inactive”.
For `COC(=O)C(NC(C)=O)(Nc1nc2ccc(S(C)(=O)=O)cc2s1)C(F)(F)F` (stereo not given), the Potency was inconclusive [inhibitor, full curve].
For `COCc1cc(=O)[nH]c(SCCS(=O)(=O)c2ccc(C)cc2)n1`, the Potency was active: 0.794 µM.
In the case of `O=C(Nc1nc(N2C(=O)c3ccccc3C2=O)n(-c2ccccc2)n1)c1ccc(F)cc1`, the Potency is reported as active: 20 µM.
`COc1ccc2c(C)c(Cl)c(=O)oc2c1` was tested, and the Potency was inconclusive [inhibitor, partial curve].
In the case of `CCOc1ccccc1-n1c(CNc2ccc(F)cc2)nnc1SCC(=O)NCc1ccco1`, the Potency is reported as inconclusive [inhibitor, single point].
In the case of `COc1ccc(C(=O)Nc2ccccc2C(=O)NC(C)C)cc1OC`, the Potency is reported as inconclusive [inhibitor, partial curve].
For `CNC(=S)Nc1ccc(Cc2ccncc2)cc1`, the Potency was inconclusive [inhibitor, single point].
With `COc1ccc(/C=N\NS(=O)(=O)c2ccc(C)cc2)cc1COc1ccccc1[N+](=O)[O-]` the Potency was inconclusive [inhibitor, partial curve].
In the case of `Cc1ccc(S(=O)(=O)/C(C#N)=C/c2c(N3CCC(C(N)=O)CC3)nc3c(C)cccn3c2=O)cc1`, the Potency is reported as inconclusive [inhibitor, partial curve].
With `Cc1cc(N2C(=O)C3C4CCC(C4)C3C2=O)no1` (stereo not given) the Potency was “inactive”.
With `Cc1cc2c(cc1C)NC(CC(=O)NCc1ccccc1)C(=O)N2` (stereo not given) the Potency was inconclusive [inhibitor, partial curve].
With `COC(=O)c1cc(=O)c2c(C)nc(C(Cl)(Cl)Cl)nc2[nH]1` the Potency was “inactive”.
In the case of `CC1=NN(c2ccc(Cl)cc2)C(=O)C1C(c1cccc(O)c1)c1c(C)[nH]n(-c2ccc(Cl)cc2)c1=O` (stereo not given), the Potency is reported as active: 3.98 µM.
`O=C1NC2(CCCCC2)N=C1c1ccc(Br)cc1` was tested, and the Potency was “inactive”.
In the case of `CCCCCCC1=Cc2cc(OC)c(OC)cc2C(C2(C(=O)OCC)CCCC2=O)O1` (stereo not given), the activity, negative = inhibition is reported as inactive: 3.52% [at 13.5 µM].
In the case of `CCC(C)C1NC(=O)C(CCNCS(=O)(=O)O)NC(=O)C(NC(=O)C(CCNCS(=O)(=O)O)NC(=O)C(NC(=O)C(CCNCS(=O)(=O)O)NC(=O)CCCCC(C)C)C(C)O)CCNC(=O)C(C(C)O)NC(=O)C(CCNCS(=O)(=O)O)NC(=O)C(CCNCS(=O)(=O)O)NC(=O)C(C(C)CC)NC1=O` (stereo not given), the Potency is reported as “inactive”.
With `Cc1nn2c3c(cnc2c1-c1ccccc1)C(=O)CC(c1ccccc1)C3` (stereo not given) the Potency was inconclusive [inhibitor, partial curve].
For `CCOC(=O)c1c(C)oc2ccc(OCC(=O)N(CC)CC)cc12`, the Potency was active: 11.2 µM.
For `COc1ccc(Cn2nnnc2CN2CCN(c3ccc(OC)cc3)CC2)cc1`, the Potency was inconclusive [inhibitor, single point].
In the case of `CCOC(=O)N1CCN(c2c(N3CCN(c4cccc(C)c4C)CC3)c(=O)c2=O)CC1`, the Potency is reported as “inactive”.
For `Cc1ccc(C(=O)c2c(C)oc3c2C(=O)C(=O)c2ccccc2-3)cc1`, the Potency was active: 20 µM.
For `CCN(CC)S(=O)(=O)N1CCC(C(=O)NCc2ccco2)CC1`, the Potency was inconclusive [inhibitor, partial curve].
In the case of `O=C1CN(c2nc(-c3cccs3)nc3sc4c(c23)CCCC4)CCN1`, the Potency is reported as inconclusive [inhibitor, partial curve].
In the case of `CCOC(=O)C1=C(C)c2ccccc2OC1(C)C(=O)OCC` (stereo not given), the Potency is reported as inconclusive [inhibitor, single point].
In the case of `CCOC(=O)N1CCN(C(=O)CCc2ccc(S(=O)(=O)NCCc3ccccc3)cc2)CC1`, the Potency is reported as inconclusive [inhibitor, partial curve].
`C/C(CC(=O)Nc1ccccc1Cl)=N\NC(=O)C(=O)NCCO` was tested, and the Potency was active: 10 µM.
`CN1CCC(=NNC(=O)c2ccc(N(Cc3ccc(Cl)cc3)S(C)(=O)=O)cc2)CC1` was tested, and the Potency was active: 8.91 µM.
In the case of `Cc1ccc(S(=O)(=O)N[C@@H]2COC(=O)C/C=C\[C@H](C)COC(=O)N[C@@H](C)C(=O)C/C=C\[C@H]2C)cc1`, the activity, negative = inhibition is reported as inactive: -15.1% [at 13.5 µM].
In the case of `COc1ccc2[nH]c(=O)c(CN(CCO)C(=O)c3ccccc3F)cc2c1`, the Potency is reported as inconclusive [inhibitor, single point].
With `S=c1nc[nH]c2c1cnn2-c1ccccc1` the Potency was active: 3.16 µM.
In the case of `COC(=O)c1oc(-c2ccc(Cl)cc2)nc1C`, the Potency is reported as active: 25.1 µM.
With `Cc1cccc(NC(=O)COC(=O)c2cc(C)oc2C)c1` the Potency was “inactive”.
In the case of `O=C1c2cccc3c(N4CCCCC4)ccc(c23)C(=O)N1c1cccc(O)c1`, the Potency is reported as inconclusive [inhibitor, single point].
For `COc1ccc(CNc2nc(S(=O)(=O)c3ccccc3)c(Cl)s2)cc1OC`, the Potency was “inactive”.
With `CCOC(=O)CSC1=C(C#N)C(c2ccco2)C(C(=O)Nc2cccc(C(F)(F)F)c2)=C(C)N1` (stereo not given) the Potency was inconclusive [inhibitor, single point].
For `CCCCN(CC)S(=O)(=O)c1ccc2c(c1)CCCN2C(C)=O`, the Potency was inconclusive [inhibitor, partial curve].
For `COCCNC(=O)c1c(N)n(-c2ccccc2)c2nc3ccccc3nc12`, the Potency was inconclusive [inhibitor, partial curve].
In the case of `CN(CCOc1ccccc1)CC(=O)Nc1ccc(Cl)c(S(=O)(=O)N(C)C)c1`, the Potency is reported as inconclusive [inhibitor, partial curve].
With `Cc1ccc(C(=O)c2coc3cc([N+](=O)[O-])c(O)c([N+](=O)[O-])c23)cc1` the Potency was inconclusive [inhibitor, single point].
`Cc1cc(C)c2c(n1)sc1c(=O)[nH]c(SCc3ccccc3)nc12` was tested, and the Potency was inconclusive [inhibitor, full curve].
With `O=C(Oc1ccc([N+](=O)[O-])cc1)c1cncc(Br)c1` the Potency was “inactive”.
`COc1ccc(C(=O)CSc2nnc(C3CCCCC3)n2N)c(OC)c1` was tested, and the Potency was inconclusive [inhibitor, single point].
In the case of `Cc1cccc(Cl)c1NC[C@H](O)CN1CCN(C)CC1`, the activity, negative = inhibition is reported as inactive: 0.778% [at 13.5 µM].
`CSc1nc(-c2ccco2)cc(-c2ccccc2)c1C#N` was tested, and the Potency was inconclusive [inhibitor, single point].
`CCCn1c(-c2ccc(F)cc2)nc2c(NCCCN(CC)CC)nc(C)nc21` was tested, and the Potency was inconclusive [inhibitor, single point].
With `C=CCn1c(SCC(=O)N2CCOCC2)nc2scc(-c3ccco3)c2c1=O` the Potency was active: 17.8 µM.
`Cc1occc1-c1nnc(SCC(=O)NCC2CCCO2)n1C` (stereo not given) was tested, and the Potency was “inactive”.
With `O=[N+]([O-])c1ccc(N=NNc2ccccc2)cc1` the Potency was inconclusive [inhibitor, partial curve].
For `O=C(Nc1ccccc1N1CCN(C(=O)c2ccccc2)CC1)c1ccc2c(c1)OCO2`, the Potency was active: 10 µM.
`FC(F)(F)c1cccc(NC(=S)Nc2ccc(Cl)cc2Cl)c1` was tested, and the Potency was inconclusive [inhibitor, single point].
With `Cc1c(-n2c(-c3ccccc3)nc3ccccc3c2=O)c(=O)n(-c2ccccc2)n1C` the Potency was “inactive”.
In the case of `O=C(COC(=O)c1cc(=O)[nH]c2ccccc12)NC(=O)NC1CCCCC1`, the Potency is reported as inconclusive [inhibitor, single point].
For `CN(NC(=O)c1ccco1)c1nc2ccccc2nc1C(F)(F)F`, the Potency was “inactive”.
With `CC(C)(C)NC(=O)COC(=O)CCC(=O)c1ccc(Cl)cc1` the Potency was inconclusive [inhibitor, partial curve, poor fit].
In the case of `O=c1c(Cc2ccc(Cl)cc2)c(O)ccn1Cc1cccs1`, the Potency is reported as “inactive”.
`Cc1c(NS(=O)(=O)c2ccc3c(c2)c(=O)n(C)c(=O)n3C)c(=O)n(-c2ccccc2)n1C` was tested, and the Potency was inconclusive [inhibitor, single point].
For `Cc1ccc(S(=O)(=O)N2CCN(CC(=O)N/N=C/C=C/c3ccccc3)CC2)cc1`, the Potency was inconclusive [inhibitor, single point].
With `O=C(Oc1ccccc1C(=O)Nc1ccccc1)c1ccccc1Br` the Potency was “inactive”.
With `O=[N+]([O-])c1ccc2nc(/C=C/c3ccc(Cl)cc3)[nH]c2c1` the Potency was “inactive”.
For `COc1ccccc1-c1nnc2sc(-c3cnccn3)nn12`, the Potency was inconclusive [inhibitor, single point].
For `CC1(C)Cc2c(C#N)c(NCCc3ccccc3)nc(-c3ccco3)c2CO1`, the Potency was inconclusive [inhibitor, partial curve].
In the case of `CC(=O)C1=C(C)NC(SCC(=O)c2ccc(C)cc2)=C(C#N)C1c1ccco1` (stereo not given), the Potency is reported as active: 10 µM.
For `CCN(CC)C(=O)C(=O)c1cccn1-c1c(Cl)cccc1C#N`, the Potency was “inactive”.
For `C=CCON1C(=O)c2ccccc2C1=O`, the Potency was inconclusive [inhibitor, single point].
For `O=C(/C=C/c1cccs1)NC(=S)Nc1ccc(C(=O)O)cc1`, the Potency was inconclusive [inhibitor, single point].
In the case of `Cc1ccc(OCC(=O)Nc2ccc(C)c(S(=O)(=O)N3CCCCCC3)c2)c([N+](=O)[O-])n1`, the Potency is reported as inconclusive [inhibitor, single point].
With `CS(=O)(=O)Nc1cccc(-c2cncnc2Nc2ccc(F)cc2)c1` the Potency was inconclusive [inhibitor, single point].
For `Cc1nnc(SCc2cccc(Cl)c2)n(N)c1=O`, the Potency was “inactive”.
